# Results published in publication PMC4336329 (PLoS ONE, 2015).
# In all, about 310,000 compounds went through this assay and about 14,000 (4.5%) showed an effect of 50% or more. The effect is printed as a negative number. Some of the results follow.
# Biological target: human ether-à-go-go-related gene (hERG) potassium channel (human, UniProt Q12809)
# Experiment: primary screen, population patch clamp on CHO cells stably expressing hERG
# 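Note: peak tail current of the secondary pulse compared with the same well before compound.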
# Sequence of human ether-à-go-go-related gene (hERG) potassium channel (Q12809 whole entry, looked up): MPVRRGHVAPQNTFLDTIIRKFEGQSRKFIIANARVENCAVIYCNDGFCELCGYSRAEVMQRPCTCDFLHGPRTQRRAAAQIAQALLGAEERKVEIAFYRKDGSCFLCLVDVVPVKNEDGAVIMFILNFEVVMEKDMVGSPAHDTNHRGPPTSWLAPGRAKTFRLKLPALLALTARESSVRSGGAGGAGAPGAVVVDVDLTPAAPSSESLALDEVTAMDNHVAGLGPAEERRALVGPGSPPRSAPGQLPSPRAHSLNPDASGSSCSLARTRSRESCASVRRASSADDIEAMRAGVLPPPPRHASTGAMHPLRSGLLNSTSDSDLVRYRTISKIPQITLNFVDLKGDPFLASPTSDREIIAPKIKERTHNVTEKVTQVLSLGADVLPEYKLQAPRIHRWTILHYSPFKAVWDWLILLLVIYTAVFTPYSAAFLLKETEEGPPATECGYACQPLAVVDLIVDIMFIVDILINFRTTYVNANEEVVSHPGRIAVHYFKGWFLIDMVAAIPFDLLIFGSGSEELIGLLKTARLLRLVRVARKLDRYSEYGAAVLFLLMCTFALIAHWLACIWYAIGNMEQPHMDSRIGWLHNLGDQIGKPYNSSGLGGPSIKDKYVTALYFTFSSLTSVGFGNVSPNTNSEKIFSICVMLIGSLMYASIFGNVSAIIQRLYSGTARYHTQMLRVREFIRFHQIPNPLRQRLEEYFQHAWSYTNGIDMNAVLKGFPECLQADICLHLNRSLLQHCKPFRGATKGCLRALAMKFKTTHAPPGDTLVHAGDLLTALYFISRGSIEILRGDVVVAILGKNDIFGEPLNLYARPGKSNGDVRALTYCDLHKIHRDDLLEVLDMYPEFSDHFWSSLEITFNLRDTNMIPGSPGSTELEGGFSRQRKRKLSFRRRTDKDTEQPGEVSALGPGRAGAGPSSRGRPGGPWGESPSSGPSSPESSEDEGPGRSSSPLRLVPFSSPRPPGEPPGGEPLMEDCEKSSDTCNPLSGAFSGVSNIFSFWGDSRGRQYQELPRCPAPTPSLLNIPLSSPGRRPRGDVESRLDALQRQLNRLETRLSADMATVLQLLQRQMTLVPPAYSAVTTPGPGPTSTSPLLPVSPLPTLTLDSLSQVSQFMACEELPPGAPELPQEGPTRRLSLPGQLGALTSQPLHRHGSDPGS
row,Structure (SMILES),"hERG current change (%, negative = inhibition) at 10uM [%]"
1,O=S(=O)(c1cccc(F)c1)N1CCCN(c2ccc(C(F)(F)F)cn2)CC1,-27.3
2,Cc1cc(=O)oc2cc(NC(=O)C3CC(=O)N(Cc4ccccc4)C3)ccc12 (stereo not shown),5.29
3,S=C(NCc1ccc(Cl)cc1)NC1CCN(Cc2ccccc2)CC1,-41.8
4,CCn1c(SCC(=O)Nc2nc(C)cs2)nnc1-c1ccco1,-50.8
5,CSC1=N/C(=C\c2cccc(Cl)c2)C(=O)N1N(C)C,9.35
6,Cc1ccc(S(C)(=O)=NS(=O)(=O)c2cccc3nsnc23)cc1 (stereo not shown),7.47
7,COc1cc2c(-c3ccc4[nH]ccc4c3)c(-c3ccc(C#N)cc3)oc(=O)c2cc1OC,20.9
8,Cc1nn(-c2ccccc2)c(C)c1C(=O)NCCc1ccc(Cl)cc1,-19.5
9,CN(Cc1ccccc1)C(=O)c1cn(C)c2ccc(S(=O)(=O)N3CCCC3)cc2c1=O,12.6
10,Clc1ccc(-c2cc(C3CCNCC3)[nH]n2)c(Cl)c1,10.2
11,O=S(=O)(NC1CC1)c1ccc(Cl)cc1,9.82
12,COc1cccc(N2CC(NC(=O)C(=O)c3c[nH]c4ccccc34)CC2=O)c1 (stereo not shown),11.6
13,CCC(C(=O)NCc1ccc(F)cc1)N(Cc1ccco1)C(=O)c1snc(C(N)=O)c1N (stereo not shown),-32
14,Cc1ccc(C)c(Cn2nnc3c(=O)[nH]c(C4CCN(C(=O)c5ccco5)CC4)nc32)c1,-27.3
15,CC(=O)c1cccc(NC(=O)CNC(=O)Cc2ccccc2)c1,35
16,O=C(CCC1CCCN(C(=O)c2ccsc2)C1)NCc1ccc(F)c(F)c1 (stereo not shown),-11.4
17,COc1cc(C2CC(=O)c3c(ccc4ccccc34)N2)ccc1O (stereo not shown),3.02
18,CN(C)CCN1C(=O)c2oc3ccc(F)cc3c(=O)c2C1c1ccncc1 (stereo not shown),-2
19,COc1cccc(/C=N/NC(=O)CCc2ccccc2)c1,-16.9
20,COc1ccc(C2N(c3cc(C)on3)C(=O)C3CCCN32)cc1 (stereo not shown),20.5
21,CCOC(=O)c1c(C)n(CCNC(C)=O)c2ccc(OC)cc12,-6.42
22,CC1CN(c2nc3ccccn3c(=O)c2/C=C(\C#N)C(=O)N2CCOCC2)CC(C)O1 (stereo not shown),6.63
23,CS/C(N)=N/N=C/c1ccc2c(c1)OCO2,9.01
24,COc1ccc2c(N)c(C(=O)NN)[nH]c2c1,2.16
25,COc1ccc2[nH]cc(CCNC(=O)COc3ccc4ccc(=O)oc4c3)c2c1,-3.62
